# Experimental data: the supplement of paper PMC10338343
# ± gives the standard deviation. This is a selection; strong and weak results do not stand in their true shares.
# Test system: MIWI (PIWIL1) piRISC loaded with L1MC piRNA (30 nt)
# Assay: pre-steady-state target cleavage rate (min^-1); MIWI and MILI are mouse PIWI proteins and EfPiwi is from a freshwater sponge; tags in brackets are library labels; higher = faster piRNA-guided slicing of the target
# Details: guide: L1MC piRNA 5'p-UAACUAAAUACUAUGCAAGCUGUAGGUCCU
# In short: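 A burst-and-steady-state fit was used to obtain the pre-steady-state cleavage rate. The input data were sequencing reads of uncleaved targets, normalised to depth and to weakly complementary targets, from a […] transcribed, DNA-blocked target RNA library mixed with 1 nM active affinity-purified piRISC holding one synthetic guide, with or without 500 nM GTSF1 partner protein, in HEPES–potassium acetate buffer at 33 °C for 0–8 or 0–960 min. Three trials were pooled and k3 was capped at 0.0001 min^-1.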
# [1] = auxiliary factor: 500 nM mouse GTSF1
# [2] = auxiliary factor: none (no GTSF1)
# 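Further: 1 nM active piRISC with 0.1 nM target library at 33 °C single turnover.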
Sequence,pre-steady-state target cleavage rate [1],pre-steady-state target cleavage rate [2]
UGGACCUAGAGCUUGCAUAGUUUUUAGUUA,0.315 ± 0.019,0.0256 ± 0.0055
UCCUGGAUGUCCUUGCAUAGUACUUAGUUA,0.0529 ± 0.0085,0.00795 ± 0.0021
UCCUGCUACAGCUUGCAUAGUAUUUAGAUUA,0.237 ± 0.035,0.0132 ± 0.0031
UCCACCUUCAGCUUGCAUAGUAAUUAGUUA,0.6 ± 0.051,0.018 ± 0.0044
UCGACCUACAGCUUGCAUAGUAUUUAGGUUA,0.439 ± 0.067,0.0192 ± 0.0042
UCCUGGAUCAGCUUGCAUAGUAUUUAGUUU [g2:g22:cont:t1U],1.54 ± 0.089,0.0667 ± 0.016
UGGAGGUACAGCUUGCAUAGUAUUUUCAAA,0.0674 ± 0.014,0.00316 ± 0.0017
UCCUCCUACUCGUUGCAUAGUAUUUAGUAA,0.466 ± 0.035,0.00623 ± 0.0016
UCCUCCUACUCGUUGCAUAGUAUUUAGUUA,0.909 ± 0.036,0.0157 ± 0.0034
UCGACCUACACCUUGCAUAGUAUAUAGUUA,0.791 ± 0.064,0.0219 ± 0.0055
UCCUGGUACGAGCUUGCAUAGUAUUUAGUUA,0.398 ± 0.064,0.0234 ± 0.0059
AGGACCUACAGCUUGCAUAGUAUUUAUUUA,0.432 ± 0.033,0.0905 ± 0.019
UCGACCUAGUCCUUGCAUAGUAUUUAGAAA,0.325 ± 0.051,0.00262 ± 0.0015
UCCUGGUACAGCUUGAUAGUAUUUAGUUA,0.217 ± 0.022,0.00692 ± 0.0028
ACGUCCUACAGCUUGCAUAGUAUUUAGUUA,1.52 ± 0.055,0.0835 ± 0.013
UCCUCCUACAGCUUGCAAGUAUUUAGUUA,0.433 ± 0.037,0.00627 ± 0.0024
ACGACCUACAGCUUGCAUAGUAUUUAGAUA,0.62 ± 0.044,0.0521 ± 0.011
UCCUGGAACUGCUUGCAAAGUAUUUAGUUA,0.755 ± 0.035,0.0155 ± 0.0042
AGGACCUACAGCUUGCAUAGUAUUUUGAUA,0.266 ± 0.033,0.0142 ± 0.0036
UCGACCUACAGCUUGCAUAGUAUUUUCUAA,0.378 ± 0.044,0.00495 ± 0.0035
UCCUCCAACAGCUUGCAUAGUAUUAAGUUA,0.304 ± 0.024,0.0183 ± 0.0026
UCCUGCUACAGCUUGCUUAGUUUUUAGUUA,0.187 ± 0.015,0.0115 ± 0.0034
AGGUCCUACAGCUUGCAUAGUAUUAAGUUA,0.381 ± 0.034,0.054 ± 0.013
UCCUGGAACAGCUAGCAAAGUAUUUAGUUA,0.677 ± 0.029,0.0102 ± 0.004
UCCUGCUCAGCUUGCAUAGUAUUUAGUUA,1.09 ± 0.043,0.0636 ± 0.013
UCCUCCUUCACCUUGCAUAGUAUUUAGUUA,0.719 ± 0.055,0.0368 ± 0.0064
AGGACCUACAGCUUGCAUAGUAUAUAGUUA,0.884 ± 0.066,0.0667 ± 0.017

Sequence,pre-steady-state target cleavage rate [1],pre-steady-state target cleavage rate [2]
UCCUGGAACAGCAUGCAUAGUAUUUAGAUA,0.505 ± 0.048,0.00807 ± 0.0036
UCGACCUACUGCUUGCAUAGUAUUUACUUA,0.278 ± 0.017,0.0322 ± 0.0038
UCCUGCUACAGCUUGCAUACUAAUUAGUUA,0.2 ± 0.019,0.00907 ± 0.0022
UGGACCUACUGGUUGCAUAGUAUUUAGUUA,1 ± 0.063,0.0358 ± 0.008
AGGACGUACAGCUUGCUUAGUAUUUAGUUA,1.31 ± 0.055,0.0487 ± 0.0095
UCCUCCUACAGCUAGCAUAGUAUAUAGUUA,0.365 ± 0.04,0.0079 ± 0.0024
UGGACCUACAGCUUGCAUAAUAUUUAGUUA,0.633 ± 0.026,0.0425 ± 0.0076
UGGACCUACAGCUUGCAUAGUUUUUUGUUA,0.242 ± 0.017,0.031 ± 0.0082
AGGACCUACAGCUUGCAUAGUUUUUACAAA,0.243 ± 0.042,0.00327 ± 0.003
UCAACCUACAGCUUGCAUAGUAUUUAGUUA,1.43 ± 0.04,0.0646 ± 0.011
UCCACCUAAAGCUUGCAUAGUAUUUAGUUA,0.289 ± 0.043,0.0181 ± 0.0028
UCGACCUACAGCUUGCAUAGUUAAUAGUUA,0.122 ± 0.019,0.00697 ± 0.0029
UCCUGGAAGUGCUUGCAUAGUAUUUAGUUA,0.393 ± 0.025,0.0331 ± 0.0076
UCCUGGAUCAGCUUGCAUACUAUUAAGUUA,0.101 ± 0.015,0.00664 ± 0.0024
UCCUCCUACAGCUUGCUAAGUAUUUAGUUA,0.226 ± 0.021,0.00288 ± 0.0013
UCCUGGAUCAGCUCUGCAUAGUAUUUAGUUA,0.985 ± 0.054,0.0138 ± 0.0041
UCCUGCUACAGCUUGGUUAGUAUUUAGUAA,0.33 ± 0.033,0.0041 ± 0.0019
AGGACGUACAGCUUGCAUAGUAUUUUGUUA,0.757 ± 0.068,0.0469 ± 0.0083
UCCUGGAUGAGCUUGCAUUCUAUUUAGUUA,0.0299 ± 0.0055,0.00511 ± 0.0033
UGGACCAUGAGCUUGCAUAGUAUUUACAAA,0.159 ± 0.021,0.00423 ± 0.0026
UCCUCCUACAGCUAGCAAAGUAUUUAGUUA,0.731 ± 0.027,0.00626 ± 0.0022
UCCUGGAUCAGCGUGCAUAGUAUUUAGUUA,1.09 ± 0.063,0.0183 ± 0.0047
AGGACCUACAGCUUCAUAGUAUUUAGUUA,1.11 ± 0.053,0.0309 ± 0.0073
UCCUGGAUGAGCUAGCAUAGUAUUUACUUA,0.347 ± 0.065,0.0108 ± 0.0032
UCCUGGAUCAGCUUGCAUAGUAUGUAGUUA,0.587 ± 0.027,0.024 ± 0.0057
UCCUGGUACACCUUGCAUAGAAUUUAGUUA,0.201 ± 0.062,0.00345 ± 0.0031
UGGACGUACAGCAUGCAUAGUAUUUAGUUA,1.11 ± 0.064,0.0375 ± 0.006
